Data reported in paper PMC3352935, “Enzymatic Analysis of Recombinant Japanese Encephalitis Virus NS2B(H)-NS3pro Protease with Fluorogenic Model Peptide Substrates” (PLoS ONE, 2012).
“And” between values parts separate entries of the source, which are not always exact repeats. Identical values can stand only once. Square brackets hold non-standard residues; d marks the D form. Peptide text beside a SMILES is read from it. * marks the point of attachment. AMC = Cc1cc(=O)oc2cc(N*)ccc12; Nle = CCCC[C@H](N)C(=O)O; Boc = CC(C)(C)OC(=O)*; nY = not defined here; Bz = O=C(c1ccccc1)*

Assays:
JEV NS2B(H)-NS3pro = biological target: T1, JEV NS2B(H)-NS3pro (Japanese encephalitis virus, UniProt P32886, DEL1469-1493); test: Enzymatic activity assay with fluorogenic peptide substrates (Michaelis-Menten kinetics); format: biochemical; conditions: 0.5 µM enzyme, 50 mM Tris-HCl pH 9.5, 30% glycerol, 37°C, inner filter effect corrected, mean of three experiments; for K m: substrate 2.5-1500 µM
T1 construct: PCR-amplify the NS2B(H) region (amino acids 51–95 and 121–131); The N-terminal one-third (180 residues) of NS3 represents the protease domain NS3(pro); made in house; host or cells: E. coli (the text names both C41 and BL21), vector pTrcHisA

[1] = biological target: JEV NS2B(H)-NS3pro protease (Japanese encephalitis virus (genotype III strain JaOArS 982))

Molecule | k cat (JEV NS2B(H)-NS3pro) | k cat/K m (JEV NS2B(H)-NS3pro) | K m (JEV NS2B(H)-NS3pro) | K m of hydrolysis (release of amc), 0.5 µM enzyme, 37°C, 50 mM Tris-HCl pH 9.5, 30% glycerol [1] [µM] | K m of hydrolysis (internally quenched fluorescence), 0.5 µM enzyme, 37°C, 50 mM Tris-HCl pH 9.5, 30% glycerol [1] [µM]
CCCC[C@H](NC(C)=O)C(=O)N[C@@H](CCCCN)C(=O)N[C@@H](CCCNC(=N)N)C(=O)N[C@@H](CCCNC(=N)N)C(=O)Nc1ccc2c(C)cc(=O)oc2c1 [Ac-nKRR-amc] (Ac-[Nle]KRR-{AMC}) | 0.01178 ± 0.00054 s⁻¹ | 368.13 ± 17.0 M⁻¹ s⁻¹ | 32 ± 2.5 µM | – | –
Cc1cc(=O)oc2cc(NC(=O)[C@H](CCCNC(=N)N)NC(=O)[C@H](CCCNC(=N)N)NC(=O)CNC(=O)OC(C)(C)C)ccc12 [Boc-GRR-amc] | 0.0037 ± 0.0002 s⁻¹ | 30.08 ± 2.7 M⁻¹ s⁻¹ | 123 µM and 123 ± 11.6 µM | – | –
Cc1cc(=O)oc2cc(NC(=O)[C@H](CCCNC(=N)N)NC(=O)[C@H](CCCNC(=N)N)NC(=O)[C@H](CC(C)C)NC(=O)OC(C)(C)C)ccc12 [Boc-LRR-amc] (Boc-Leu-Arg-Arg-{AMC}) | – | 3.74 ± 0.3 M⁻¹ s⁻¹ and 3.74 M⁻¹ s⁻¹ | 40 ± 5.0 µM | – | –
CCCC[C@H](NC(=O)c1ccccc1)C(=O)N[C@@H](CCCCN)C(=O)N[C@@H](CCCNC(=N)N)C(=O)N[C@@H](CCCNC(=N)N)C(=O)Nc1ccc2c(C)cc(=O)oc2c1 [Bz-nKRR-amc] (Bz-[Nle]KRR-{AMC}) | 0.01 ± 0.00023 s⁻¹ | 500.00 ± 11.3 M⁻¹ s⁻¹ | 20 ± 1.34 µM | – | –
Abz-(R)4SAGnY-amide | 0.0004 ± 0.000014 s⁻¹ | 19 M⁻¹ s⁻¹ and 19.000 ± 1.85 M⁻¹ s⁻¹ | 20.91 ± 2.04 µM | – | –
Ac-nKRR-amc (peptide) | – | – | – | 32 | –
Boc-GRR-amc (peptide) | – | – | – | 123 | –
Boc-LRR-amc (peptide) | – | – | – | 40 | –
Bz-nKRR-amc (peptide) | – | – | – | 20 | –
Pyr-RTKR-amc | 0.0176 s⁻¹ and 0.0176 ± 0.0008 s⁻¹ | – | 9 µM and 9.0 ± 0.82 µM | – | –
Pyr-RTKR-amc (peptide) | – | – | – | 9 | –
Abz-RRRRSAG[nY]-NH2 (reading uncertain) [Abz-(R)4SAGnY-amide] | – | – | – | – | 20.9
